Assay results from the supplement of paper PMC9446081.
Out of some 39,000 compounds screened, about 220 (0.56%) showed activity. The list shows a part of the results.

tested on: Escherichia coli K-12 BW25113; test: relative growth (OD600 normalised to plate interquartile mean) (fraction); higher = less growth inhibition, active = 0.2 or less; details: 50 µM; LB; incubation time: overnight (16-24 h)
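Further: static incubation at 37 °C against the wild-type strain, values averaged over two biological replicates.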

SMILES | relative growth
Cn1nnc2c(Cl)ncnc21 | inactive: 0.981
CC(C)(C)[S@](=O)N1Cc2cc(C(=O)NCc3ccncc3)nc(-c3cccc(-c4cccc(C#N)c4)c3)c2[C@@H]1CCO | inactive: 1
C[C@H]1CN([C@@H](C)CO)C(=O)c2cc(NC(=O)Nc3ccc4c(c3)OCO4)ccc2O[C@H]1CN(C)Cc1ccc(-c2ccccc2)cc1 | inactive: 0.981
COc1ccc(NC(=O)N[C@@H]2CC[C@H](CCNC(=O)CN3CCOCC3)O[C@H]2CO)cc1 | inactive: 1.01
C[C@@H]1CCCCO[C@H](CN(C)S(=O)(=O)c2ccc(Cl)cc2)[C@H](C)CN([C@H](C)CO)C(=O)c2cc(NS(=O)(=O)c3ccc(F)cc3)ccc2O1 | inactive: 1.04
C[C@@H]1CN([C@H](C)CO)C(=O)c2cc(NC(=O)c3ccccc3)ccc2O[C@@H](C)CCCCO[C@H]1CN(C)C(=O)Nc1ccccc1 | inactive: 1
C[C@H](CO)N1C[C@H](C)[C@H](CN(C)C(=O)Nc2ccc3c(c2)OCO3)Oc2ccc(NC(=O)Nc3cccc4ccccc34)cc2C1=O | inactive: 1.02
O=C(C1CC1)N1CCCN(C(=O)C2CC2)CC1 | inactive: 0.998
COc1ccc([Si](C)(C)[C@@H]2[C@@H](CCn3cc([C@H](O)c4ccccc4)nn3)O[C@]3(C(=O)N(C)c4c(Br)cc(C)cc43)[C@H]2C)cc1 | inactive: 1.01
COC(=O)C[C@@H]1C(=O)NCCN1C(=O)NS(=O)(=O)c1ccc(C)cc1 | inactive: 0.886
Cc1noc(C)c1NC(=O)Nc1ccc2c(c1)C(=O)N([C@H](C)CO)C[C@H](C)[C@H](CN(C)S(=O)(=O)c1cn(C)cn1)O2 | inactive: 1
COCC#Cc1cnc2c(c1)C(=O)N([C@H](C)CO)C[C@@H](C)[C@H](CN(C)C(=O)CN1CCOCC1)O2 | inactive: 1.02
C[C@@H]1CN([C@H](C)CO)C(=O)c2cc(NC(=O)Nc3ccc(C(F)(F)F)cc3)ccc2O[C@@H]1CN(C)S(=O)(=O)c1ccc(F)cc1 | inactive: 1.03
O=c1nc[nH]c2n[nH]cc12 | inactive: 1.03
C=CCN(Cc1ccccc1)C(=O)[C@@H]1N(CCOCCO)C(=O)[C@@H]2[C@H](C(=O)O)[C@@H]3C=C[C@@]21O3 | inactive: 1.03
C[C@H]1CN([C@@H](C)CO)C(=O)c2cc(NC(=O)Cn3cnnn3)ccc2O[C@H]1CN(C)S(=O)(=O)c1cccs1 | inactive: 0.979
COc1ccc2c3c(n(c2c1)C)[C@@H](CO)N(C[C@]13CN(C1)C(=O)CN1CCOCC1)C(=O)Nc1ccc(cc1)F | inactive: 0.977
CCC(=O)Nc1ccc2c(c1)C(=O)N(C)C[C@H](OC)[C@H](C)CN(C(=O)CN1CCOCC1)[C@H](C)CO2 | inactive: 0.974
C[C@@H]1CN([C@@H](C)CO)C(=O)Cc2cc(NC(=O)Nc3ccc(C(F)(F)F)cc3)ccc2O[C@H]1CN(C)Cc1ccc2c(c1)OCO2 | inactive: 1.04

SMILES | relative growth
C[C@@H]1CN([C@@H](C)CO)C(=O)Cc2cc(NC(=O)Nc3cccc4ccccc34)ccc2O[C@@H]1CN(C)Cc1ccc2c(c1)OCO2 | inactive: 1.01
C[C@@H]1CN([C@@H](C)CO)C(=O)c2cc(NC(=O)CCC(F)(F)F)ccc2O[C@H]1CN(C)Cc1ccc(Oc2ccccc2)cc1 | inactive: 1.01
COc1ccc(CN(C)C[C@H]2OCCCC[C@H](C)Oc3ccc(NC(=O)NC4CCCCC4)cc3C(=O)N([C@@H](C)CO)C[C@H]2C)cc1 | inactive: 1.01
C[C@H]1CN([C@@H](C)CO)C(=O)c2cc(NC(=O)NC3CCCCC3)ccc2O[C@@H]1CN(C)Cc1ccc(Cl)c(Cl)c1 | inactive: 1.02
C[C@H](CO)N1C[C@H](C)[C@@H](CN(C)Cc2ccc(Cl)c(Cl)c2)Oc2c(NC(=O)Nc3ccc(F)cc3)cccc2C1=O | inactive: 0.995
C[C@@H]1CCCCO[C@H](CN(C)S(=O)(=O)c2ccc(Cl)cc2)[C@H](C)CN([C@H](C)CO)C(=O)c2cc(NC(=O)c3ccncc3)ccc2O1 | inactive: 1.01
C[C@H](CO)N1C[C@H](C)[C@@H](CN(C)Cc2ccc(C(F)(F)F)cc2)Oc2ccc(NS(=O)(=O)c3ccc(Cl)cc3)cc2C1=O | inactive: 1.02
C[C@H](NC(=O)N(C)C[C@@H]1OCc2ccccc2-c2ccccc2C(=O)N([C@H](C)CO)C[C@@H]1C)c1ccccc1 | inactive: 1.03
CC(C)[Si]1(C(C)C)OCc2cc(-c3ccc(-c4ccc(Cl)c(Cl)c4)o3)nc(-c3ccccc3)c21 | inactive: 0.957
CCNC(=O)C[C@@H]1CC[C@@H](NC(=O)C2CCOCC2)[C@@H](CO)O1 | inactive: 1.01
O=C(CN1CCOCC1)N[C@@H]1CC[C@H](CCNC(=O)Nc2cc(F)ccc2F)O[C@@H]1CO | inactive: 0.966
CSCC[C@H](NC(=O)[C@H](CCC(=O)O)NC(=O)[C@H](CCC(=O)O)NC(C)=O)C(=O)N[C@@H](CCC(N)=O)C(=O)N[C@@H](CCCNC(=N)N)C(=O)N[C@@H](CCCNC(=N)N)C(N)=O | inactive: 1.03
Cc1noc(C)c1S(=O)(=O)Nc1ccc2c(c1)CC(=O)N([C@H](C)CO)C[C@@H](C)[C@H](CN(C)C(=O)NC1CCCCC1)O2 | inactive: 1.01
CO[C@H]1CN(C)C(=O)c2ccc(NC(=O)Nc3cccc(F)c3)cc2OC[C@H](C)N(C(=O)Nc2c(C)noc2C)C[C@H]1C | inactive: 1
CC(C)CC#Cc1ccc2c(c1)O[C@@H](CN(C)S(=O)(=O)c1ccc(F)cc1)[C@@H](C)CN([C@@H](C)CO)S2(=O)=O | inactive: 1.07
C[C@@H]1CN([C@@H](C)CO)C(=O)c2cccc(NC(=O)C3CC3)c2O[C@H]1CN(C)Cc1ccc(Oc2ccccc2)cc1 | inactive: 1.04
C[C@@H]1CN([C@H](C)CO)C(=O)Cc2cc(NC(=O)CCN3CCOCC3)ccc2O[C@@H]1CN(C)Cc1ccc2c(c1)OCO2 | inactive: 1
C[C@H](CO)N1C[C@H](C)[C@@H](CN(C)C(=O)Nc2ccc3c(c2)OCO3)Oc2ccc(NS(=O)(=O)c3cn(C)cn3)cc2CC1=O | inactive: 0.988
COC(=O)C[C@H]1CC[C@H]2[C@@H](COC[C@@H](O)CN2S(=O)(=O)c2ccc(F)cc2)O1 | inactive: 0.99
